Measurements published in the RNAGym collection of RNA variant scans (doi:10.7554/elife.90254).
The source gives no read counts; variants with many changes may rest on few reads.

B1: LINE1-full (parent)
chain: UACGUAGGUGGUUUUCCCCUGAUAGUGCUAAGGGGGCCUGGAAGUUUGGACUGGGCAGAGCUCAACACAGCGUGGCAAAGUGGCUGUGGCUAGACUGCCUCUCUGGAUUCCUCGUCACUCAGCAGGGCAUCUCUGAGAGAAAUGCC

Variants of: B1
Assay: self-cleavage, relative activity (ratio to wild type); higher = more cleavage; in vitro, sequencing; the parent is a self-cleaving ribozyme

| Variant | self-cleavage |
| --- | --- |
| U20A A43G U109A | 1.17 |
| U9A A69G U134C | 0.53 |
| U15C G89A A138G | 0.07 |
| A2G U39A U47C U87C | 2.16 |
| U85C A121C A140U U143C | 0.17 |
| C51U U96C C101U | 0.07 |
| U13C U26C U46C | 1.7 |
| G40A U96A U109C | 0 |
| U23G G72A U87A G114A | 0.05 |
| U45G C56A U81C U87A | 0.15 |
| A22G C51U G54U U73A U132G | 0.83 |
| U9C A64G A94G A141G | 0 |
| U13C A43U U115A | 1.41 |
| U104C G106C U112C C113U U115C | 1.53 |
| U20C U104C A140G | 1.28 |
| U12C U73C A79G A121G | 2.3 |
| C37G A69U A129G | 0.09 |
| C16U U47A U130C | 1.84 |
| U81A A107G U112C | 2.17 |
| G11A U85C A94G A138G A141G | 0 |
| A2G U5C U9A U46A C98U | 0.71 |
| G49A A94G A136G | 0.13 |
| U15C A94G U104G | 0.5 |
| U15C A22G G49U A79G | 0.8 |

| Variant | self-cleavage |
| --- | --- |
| U20A A42G A141G | 1.31 |
| U14G G53A U81A U87C U119C | 0.43 |
| U47C A69G U81A | 0.81 |
| A6G A59G A78U U81G G89A | 0 |
| A50G A117U U119A | 1.2 |
| U13C U39A U47C U143C | 1.37 |
| A30U G70A A94G | 0.1 |
| U14C U102C U143C C145U | 1.08 |
| U20C U47C A140G | 1.8 |
| A43U A79G U85C | 0.25 |
| U39A A65G A69U | 0.03 |
| G53U A78G A124G U143A | 0.5 |
| U13C U15C G33U U46C C113A A142G | 1.24 |
| U45A U112C A124G | 0.32 |
| A22G U26A U102C | 1.53 |
| A57G G125A A140G | 0.64 |
| U1C A77G A140G | 1.18 |
| U39C U45C G74U | 1.22 |
| U13C U20A G75A G114A A121U | 0.5 |
| U12A U100C A124G | 1.47 |
| U12G U62C A138G | 0 |
| A42G U47A G60U U143C | 0.05 |
| A59U U96A A138U | 0.21 |
| A59G A140U A142G | 0.15 |

| Variant | self-cleavage |
| --- | --- |
| G7A A42G A78G U81A U85A G139A | 0.21 |
| U39A A67U U100C U104C C120U A138U | 0.26 |
| U46C A64G A121G U134C | 0.43 |
| G4A U73C U112C U119C | 1.15 |
| U39C A50G A64U | 0.39 |
| U52A C113A U132C | 0.88 |
| U45C A79G U85A | 0.06 |
| U46C U52A U109C A121U A129C | 2.07 |
| A64G U108C U119C U134A C145G | 0 |
| U14G A22G A50G U130G | 1.15 |
| U46C A50G A57G U81A | 0.22 |
| U14C U39A A57G A67U A129U | 0.18 |
| U14C U45A U81A A117U A136G | 1.64 |
| U1C A31G U45A A94G | 0 |
| U39C A64G U81C | 0.33 |
| A79G U104A G127A A141U | 0.81 |
| A50G A94U U100A | 0.08 |
| U9A U12C U39A | 0.66 |
| U20C A22U C113U | 0.63 |
| U12C A22U U119A | 0.73 |
| U12A U46C A79G U115C A117G C123A | 1.84 |
| U39C U46C U109C | 0.44 |
| U85A A92G U109C | 0.18 |
| U9C C37U A43G G137U A138G | 1.94 |

| Variant | self-cleavage |
| --- | --- |
| A2G U81A U102C C113A A141G U143C | 1.8 |
| A64G G93A G125U | 0.03 |
| A43G A69G A79G A124U | 0 |
| A2U U100A U102C | 1.31 |
| A6G U62C U102C | 0 |
| A78G U112G C113U | 1.85 |
| U9G A24G G89A U130A | 0.05 |
| C28A A78G G106A U112C | 1.04 |
| U15A G54A U115C A124G | 0.32 |
| U62A U81A U102C | 0.02 |
| A50U A65U A69G A94G | 0.11 |
| A64G A69G U132C U143C | 0 |
| G33A A94G U100C U130C C146U | 0 |
| U14C A22G G33A A69U U81G A136G | 0.57 |
| U12A A64G U112C A117U C120A A142G | 0.18 |
| U13C G35U U73A A140G | 1.17 |
| A50G U87C U91A | 0.24 |
| U20C U73G A78G A107G A141G | 0.92 |
| U9G U15A U47G U119C | 0.72 |
| A6G U52A G93A A121U | 0.1 |
| U20A U47A A57C A59G | 0.1 |
| U62C U134C A136G | 0.09 |
| C37G A64C U91C A117C U143C | 0 |
| A22G A77C C113U | 1.03 |

| Variant | self-cleavage |
| --- | --- |
| G34A A50G U85G U130C | 0.49 |
| U46C A117G A140G | 1.84 |
| U20C G34A U39A | 1.93 |
| U46G A65G U134C U143C | 0 |
| U14C G80A A117G | 1.91 |
| U47G A50G U73A | 1.23 |
| U13C U46A C68U C90G U130C U132C | 0 |
| A22G U23A A59U U115A | 0.71 |
| U14C G36C G89A A142G | 0.05 |
| U26C A43U U62C G82A | 0.42 |
| U45G A94G C131U A140U | 0 |
| A50G U91C U100C G105A | 0.38 |
| U13C U108C U115A A138G A140G | 1.6 |
| U47C U85C C118U | 0.21 |
| U9A U81C C84G U132C U143C | 0.7 |
| U12C C56U A64G A69G U104A | 0.05 |
| C19A A64U A77U U87C A138G | 0.05 |
| A64U A94G U102A | 0.11 |
| U81G U85C A142G | 0.41 |
| C38U A67G C71U U115A A142G | 0.12 |
| U13C G53A A69G U115C A121U | 0.11 |
| C38U C56G A107G | 0 |
| A69G U134A U143A | 0.53 |
| U26C U47G U81A A129G U134G | 1.31 |

| Variant | self-cleavage |
| --- | --- |
| A30G U39A A136G | 1.93 |
| U13C A65G A94U A117G | 0.34 |
| U45C A94G G105A U132C | 0.25 |
| G70A U87A A142G | 0.02 |
| A22U A64U G105A | 0.43 |
| U45A A69U U87A U119C | 0.03 |
| G48U U96G U100C | 0.63 |
| A43G U46A A77U U119C | 1.37 |
| U45C C63U G114A | 0.25 |
| U52C A64U G72A A77U A78G U109C | 0.07 |
| A64U U102C A140G | 0.59 |
| G4U U14C A65G | 0.06 |
| U15C U23C A67U U96A | 0.06 |
| G33U G35A A69U U104C | 0.05 |
| C16A U29C A77U | 0.91 |
| G58U U85A U134A | 0.03 |
| A2G U14C A59G | 0.53 |
| G35A U73C U109A A136U | 2.32 |
| U39C A67G U134C | 0.56 |
| A31G U119C A129G A138G | 1.38 |
| U14A A94G A124G | 0.15 |
| A30G U47C U62A A78G | 0.15 |
| U20A U39C A107G | 0.97 |
| U20A A64U U96C U130C | 0.02 |

| Variant | self-cleavage |
| --- | --- |
| A43G A57C G89A U109A | 0.05 |
| G4A C68U U115C U130C | 0.31 |
| U20G A42G U73C C90U A107G U112C | 0 |
| U5C U12G A31U U100C U115C A117U A138G | 2.04 |
| A31U A42U U62C A69U C71U A94G U96A | 0.1 |
| A67G A79G A140U | 0.61 |
| A50G A129G G137U | 0.82 |
| U15A U45C A67U A69G | 0.17 |
| A94G C101A U108C | 0.33 |
| U5A U20C U112C | 0.64 |
| A67U U81A A138G A140C | 0.09 |
| U39A A42G U73A U81A U130C | 2.25 |
| C61U G74A A79G C113U | 0.02 |
| A57U A79G A107G | 0.12 |
| A50G C98A A140G | 0.05 |
| U5C A30G A69G | 0 |
| A31U U39C U45C U73C U81A A138G | 2.7 |
| U5A A31U A136G | 0.38 |
| U13G U130C U143C | 0.71 |
| U85C U87G A129G | 0 |
| U62C A107G U130C | 0.15 |
| C16A U100C G144A | 0.43 |
| A59G U62C C101U | 0 |
